In PubChem BioAssay AID504832 (National Center for Advancing Translational Sciences (NCATS), 2011):
The campaign covered roughly 310,000 compounds. About 18,000 (5.8%) were called active. This list was built around the results that the source calls inconclusive (neither active nor inactive); the mix of calls is not that of the screen. Calls come from the whole dose curve; as a rule, active = well fitted inhibition curve with a large enough effect; inconclusive = small, poorly fitted or top-dose-only effect, or another doubt; inactive = no such curve, though single readings can be large or run the other way. No potency is given beside an inconclusive call; the fits are too rough.

test: Primary qHTS for delayed death inhibitors of the malarial parasite plastid, 48 hour incubation; conditions: P. falciparum luciferase growth in erythrocytes; series mostly up to 28.7 µM; activity change, negative = inhibition: at the top concentration
In short: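 Luciferase-expressing parasites in RBCs, 2% Hct / 0.1% parasitemia final; RPMI 1640 + 0.5% Albumax; 37 C, 5% CO2, one generation; luminescence read-out, lower signal = inhibition.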
% is set by controls: 0 for no effect and ±100 for the full control effect; potency is the fitted concentration of half-maximal effect; tags give direction and shape of the fitted curve.

Structure (SMILES) | Potency | activity change, negative = inhibition
CC(C)Cc1cc(C(=O)Nc2c(F)cc(F)cc2Br)no1 | inconclusive [inhibitor, single point] | 
Cc1ccc(NC(=O)N2CCC(c3ccccc3)C2)cc1C (centres undefined) |  | inactive: 250%
N#Cc1c2ccc(OCC(=O)NCc3ccco3)cc2n2ccccc12 | inconclusive [inhibitor, single point] | 
Cc1sc2ncnc(SCC(=O)N(C)C3CCS(=O)(=O)C3)c2c1C (centres undefined) |  | inactive: 4.93%
Cc1cc2nc3n(c2cc1C)CC1CC(C(=O)NCc2ccccc2)N(C)C31 (centres undefined) | inconclusive [inhibitor, single point] | 
CCN1CCn2c3c(c4cccc(C)c42)CCCC31 (centres undefined) | inconclusive [inhibitor, single point] | 
COc1cccc(CSc2nnc(-c3ccco3)n2C)c1 | inconclusive [inhibitor, single point] | 
CCOC(=O)CN1N=C(c2ccc(C)cc2)CCC1=O |  | inactive: 30%
O=C(N/N=C/c1c(O)ccc2ccccc12)c1cccnc1 | inconclusive [inhibitor, full curve, poor fit] | 
Cc1ccc(-n2nc(C)c(NC(=O)CCl)c2C)cc1C | active: 4.15 µM | 
O=C(CSc1nnc(Cn2c(=O)sc3ccccc32)n1-c1ccccc1)N1CCCCCC1 | inconclusive [inhibitor, partial curve, poor fit] | 
CC(C)c1cccc(C(C)C)c1NC(=O)CCl | inconclusive [inhibitor, partial curve, poor fit] | 
O=C1/C(=C/c2ccccc2Cl)SC(=S)N1CCC(=O)N1CCCCC1CCO (centres undefined) | inconclusive [inhibitor, partial curve] | 
O=C(CN1C(=O)NC2(CCCCCC2)C1=O)NCCc1ccccc1 | inconclusive [inhibitor, single point] | 
Cc1ccn2c(-c3n[nH]c(=S)n3C)c(C)nc2c1 |  | inactive: 7.12%
CC(C)(C)NC(=O)NC(=O)CN1CCC(Cc2ccccc2)CC1 | inconclusive [inhibitor, single point] | 
Cc1ccc(NC(=O)Nc2ccc3c(c2)OCO3)cc1F |  | inactive: 77%
COc1ccc(N(CC(=O)Nc2c(C)n(C)n(-c3ccccc3)c2=O)S(=O)(=O)c2ccccc2)cc1OC |  | inactive: -3.16%
O=C1CSC(c2cn(-c3ccccc3)nc2-c2cccs2)N1CC1CCCO1 (centres undefined) | active: 11.7 µM | 
O=C(c1ccc(Cl)c(S(=O)(=O)N2CCOCC2)c1)N(Cc1nnc(-c2ccccc2Cl)o1)C1CC1 | inconclusive [inhibitor, single point] | 
COc1ccc(S(=O)(=O)N2CCN(Cc3cc(OC)c(OC)c(OC)c3)CC2)cc1 | inconclusive [inhibitor, single point] | 
CCCCc1nc(NCc2ccccc2)c(C#N)c2c1CCCC2 | active: 6.57 µM | 

Structure (SMILES) | Potency | activity change, negative = inhibition
Cc1ccc(S(=O)(=O)N2CCN(C(=O)C(Cc3ccccc3)NC(=O)c3ccccc3)CC2)cc1 (centres undefined) | inconclusive [inhibitor, partial curve, poor fit] | 
CC1CCN(C(=O)COC(=O)Cn2cnc3c2c(=O)n(C)c(=O)n3C)CC1 |  | inactive: -9.26%
NS(=O)(=O)c1ccc(NC(=O)CSc2nc3c(c(=O)[nH]2)CCCC3)cc1 |  | inactive: 6.32%
COc1cccc(OCC(O)CN2CCC(CN3C(=O)c4cccc5cccc(c45)C3=O)CC2)c1 (centres undefined) | inconclusive [inhibitor, single point] | 
Cc1ccc(NC(=O)C(NC2CCCC2)c2ccccc2)cc1Cl (centres undefined) | active: 13.1 µM | 
CCCCCCn1nc(C(=O)N(CC(C)C)c2c(N)n(CCCC)c(=O)[nH]c2=O)c2ccccc2c1=O | inconclusive [inhibitor, partial curve] | 
Cc1cnn(C(=O)c2ccccc2Br)c1 |  | inactive: 13.5%
O=C(COC(=O)C1CC2C=CC1C2)Nc1ccc2c(c1)OC(F)(F)O2 (centres undefined) | inconclusive [inhibitor, single point] | 
COc1ccc([C@H]2CC(=O)C=C(c3cc(C(F)(F)F)cc(C(F)(F)F)c3)C2)cc1 | inconclusive [inhibitor, partial curve, poor fit] | 
CCCCc1nnc(SCC(=O)NC2CCCCC2)n1C | inconclusive [inhibitor, partial curve, poor fit] | 
COc1ccccc1OCc1nnc(SCC(=O)Nc2ccc(N3CCOCC3)cc2)n1C |  | inactive: -3.89%
COc1ccc(NC(=O)CSc2ccccn2)c([N+](=O)[O-])c1 |  | inactive: 60.3%
Cc1cc(C(C)c2ccccc2)c(O)c(CN2CCOCC2)c1C (centres undefined) | active: 1.85 µM | 
Cc1ccc(N2C(=O)C3C(C2=O)N2C(c4cccs4)C4C(=O)N(c5ccc(C)cc5)C(=O)C4N2C3c2cccs2)cc1 (centres undefined) | inconclusive [inhibitor, partial curve, poor fit] | 
O=C(Cc1cccs1)N(Cc1ccco1)C1(C(=O)NC2CCCC2)CCCCC1 | inconclusive [inhibitor, partial curve, poor fit] | 
C=CCN1C(=O)c2ccccc2Sc2ccc(C(=O)NCC(OC)OC)cc21 | inconclusive [inhibitor, partial curve, poor fit] | 
CCCCN(C)S(=O)(=O)c1ccc(C(=O)N=c2sc3cc(NC(C)=O)ccc3n2C)cc1 |  | inactive: -1.29%
Cc1ccc(C)c(C(=O)NC(C)c2ccc(-n3ccnc3)cc2)c1 (centres undefined) | inconclusive [inhibitor, single point] | 
O=C(NC1CCCc2ccccc21)c1cccc(S(=O)(=O)N2CCN(c3ccccc3)CC2)c1 (centres undefined) | active: 10.4 µM | 
CC(=O)/C=C/n1c(=S)oc2ccccc21 | inconclusive [inhibitor, partial curve, poor fit] | 
O=C(Nc1ccc(C(=O)N2CCCCC2)cc1)c1ccc([N+](=O)[O-])cc1 | inconclusive [inhibitor, partial curve, poor fit] | 
CCOC(=O)c1c(-c2ccc(OC)cc2)oc2ccc(O)cc12 | inconclusive [inhibitor, single point] | 
